Reference: PubChem BioAssay AID588855 (National Center for Advancing Translational Sciences (NCATS), 2011)
Screen size: about 410,000 compounds; about 5,000 (1.2%) were called active. The inconclusive results got no clear call from the source; some entries with a clear call stand among them for comparison. Calls follow the shape of the dose curve; as a rule, active = well fitted inhibition curve with a large enough effect; inconclusive = small, poorly fitted or top-dose-only effect; inactive = no such curve, though single readings can be large or run the other way. Potencies of inconclusive entries are doubtful fits and often do not repeat.

Test: qHTS for Inhibitors of TGF-b; also: nearly all actives have a fitted effect of over 65% in size
Settings: HepG2 CAGA-GFP TGF-b/SMAD3 reporter, GFP fluorescence, 18 h, TGF-beta stimulated, 500 pg/mL final; series mostly up to 46.1 µM; activity, negative = inhibition: at the top concentration
Method in brief: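 Smad-responsive CAGA-GFP expression was quantified in HEPG2 cells exposed to compounds and 500 pg/mL final TGF-beta for 18 h at 37 degrees C; unstimulated wells defined full inhibition.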
% is scaled to controls: 0 for no effect and ±100 for the full control effect; potency is read from the fitted curve at half-maximal effect; tags tell the direction and shape of the fitted curve.

SMILES	Potency	activity, negative = inhibition
O=C1C2CCCN2C(=S)N1C1CCCCC1 (centres undefined)	inconclusive: 35.5 µM [inhibitor, single point]	
Cc1ccc(/C=N/Nc2cc(C)nc(NCc3ccccc3)n2)cc1	inconclusive: 12.6 µM [inhibitor, single point]	
COc1ccccc1-c1nc(C#N)c(N2CCN(c3ccccc3)CC2)o1	inconclusive: 22.4 µM [inhibitor, single point]	
Cc1cc(N2CCN(C)CC2)nc2ccc(NC(=O)Nc3ccccc3)cc12	inconclusive: 10 µM [inhibitor, partial curve]	
COc1ccc(-c2oc3ccc(-c4cc(OC)c(OC)c(OC)c4)cc3c2-c2ccc(OC)cc2)cc1		inactive: -16.1%
CCN(CC)S(=O)(=O)c1ccc(O)c(NC(=O)CN2CCc3ccccc3C2)c1	inconclusive: 12.6 µM [inhibitor, single point]	
COc1ccc(C2=NN(C(C)=O)C(c3cn(-c4ccccc4)nc3-c3cccs3)C2)cc1 (centres undefined)		inactive: 24.1%
COc1ccc(N(C)S(=O)(=O)c2cccc(C(=O)OCC(=O)N3CC(C)CC(C)C3)c2)cc1 (centres undefined)		inactive: 0.13%
CC(=O)Nc1c(C(=O)Nc2cccc(C)c2)nnn1-c1ccc(C)cc1	inconclusive: 25.1 µM [inhibitor, single point]	
Oc1ccc(N=Nc2ccccc2)o1	inconclusive: 35.5 µM [inhibitor, single point]	
Cc1cc(Nc2nnnn2-c2ccccc2)n(-c2ccc(Cl)cc2)n1	active: 12.6 µM	
CCc1ccc(-c2nc(SCC(=O)NC3CCS(=O)(=O)C3)n[nH]2)cc1 (centres undefined)		inactive: 1.15%
Cc1cc(Br)c(Cl)cc1NC(=O)CN1C(=O)C2C3CC(c4ccccc4)C(C3)C2C1=O (centres undefined)	inconclusive: 25.1 µM [inhibitor, single point]	
Cn1c(=O)c2c(SCC(=O)NCc3ccco3)nc(-c3ccccc3F)nc2n(C)c1=O		inactive: 26.1%
Cc1oc(-c2ccc(Cl)cc2)nc1CN1CCCC(C(=O)N2CCN(C(=O)c3ccco3)CC2)C1 (centres undefined)	inconclusive: 3.16 µM [inhibitor, partial curve, poor fit]	
OC[C@@H]1CN(Cc2ccc(Cl)cc2)C[C@H](n2cnc3c(Nc4ccccc4)ncnc32)O1	inconclusive: 7.94 µM [inhibitor, partial curve, poor fit]	
O=C(CN1CCOCC1)N/N=C/c1ccc(C(=O)O)cc1		inactive: 0.121%
CCOc1ccc(N(CC(=O)NC2CC3CCC2C3)S(=O)(=O)c2ccc(C)cc2)cc1 (centres undefined)	inconclusive: 35.5 µM [inhibitor, single point]	
O=c1c2ccccc2nc(/C=C/c2cc(Br)ccc2O)n1CCCO	inconclusive: 31.6 µM [inhibitor, single point]	
C=CC(C)(C)c1c(O)c(CC=C(C)C)c(O)c2c(=O)c3ccc(O)c(O)c3oc12	active: 11.2 µM	
Cc1ccc(C2(C)CC(C)(C)N(C(=O)CSc3nnc(C)s3)c3ccccc32)cc1 (centres undefined)	inconclusive: 25.1 µM [inhibitor, single point]	
CCN(CC)S(=O)(=O)c1ccc(NC(=O)c2ccc(Cl)nc2)cc1		inactive: -7.28%
O=C(NCCC1CCCCN1S(=O)(=O)c1ccc(F)cc1)C(=O)NCc1cccnc1 (centres undefined)		inactive: -2.01%

SMILES	Potency	activity, negative = inhibition
N#Cc1cccc(NC(=O)CCc2ccc(S(=O)(=O)N3CCOCC3)cc2)c1		inactive: 2.74%
CCCCNc1nc2c(c(=O)n(C)c(=O)n2C)n1Cc1cccc(OC)c1	inconclusive: 12.6 µM [inhibitor, partial curve]	
CC(=O)c1cccc(NC(=O)CSc2ccc(-c3ccc4c(c3)OCO4)nn2)c1	inconclusive: 6.31 µM [inhibitor, single point]	
CCNC(=S)N1CCN(c2nc(-c3ccc(F)cc3)cs2)CC1		inactive: -25.8%
O=C(NNC(=O)c1cccc(S(=O)(=O)N2CCCCC2)c1)c1ccccc1		inactive: -1.97%
Oc1cccc(C=NN=C2c3ccccc3-c3ccccc32)c1	inconclusive: 25.1 µM [inhibitor, partial curve, poor fit]	
CCOc1ccc(N2C(=O)CC(Cc3ccc(Br)cc3)C2=O)cc1 (centres undefined)		inactive: 3.85%
CCOC(=O)C1=CC[C@@H](c2ccc([N+](=O)[O-])cc2)N(S(=O)(=O)c2ccc(C)cc2)[C@H]1c1ccccc1		inactive: -8.9%
Cc1ccc[n+](CC(=O)N2CCCCC2)c1C	inconclusive: 3.16 µM [inhibitor, single point]	
COc1ccc(NC(=O)CN(C)S(=O)(=O)c2ccc3[nH]c4c(c3c2)CCCC4)cc1OC	inconclusive: 22.4 µM [inhibitor, single point]	
COc1cccc(N2CCN(C(=O)c3cc4cc(Cl)ccc4[nH]3)CC2)c1	inconclusive: 20 µM [inhibitor, single point]	
COc1cccc(N2CCN(C(=O)c3ccc(CS(=O)c4cccc(Cl)c4)o3)CC2)c1 (centres undefined)	inconclusive: 25.1 µM [inhibitor, single point]	
CC(=O)c1nc2ccccc2n1S(=O)(=O)c1ccc(Cl)cc1		inactive: 1.98%
O=C(Nc1ccc2oc(-c3cccnc3)nc2c1)c1ccc(-c2cccc(OC(F)(F)F)c2)o1		inactive: -13.5%
O=C(NC(=S)NNC(=O)c1cnccn1)c1ccc(F)cc1		inactive: -7.08%
Cc1[nH]nc(-c2ccc(OCc3cnn(-c4ccccc4)c3)c(C)c2O)c1Oc1ccccc1	inconclusive: 20 µM [inhibitor, single point]	
Oc1ccccc1/C=N/n1c(-c2ccccc2)n[nH]c1=S		inactive: -3.14%
O=C(NN=C1CCCC1)c1[nH]c2ccc(Br)cc2c1-c1ccccc1	inconclusive: 12.6 µM [inhibitor, partial curve, poor fit]	
C[C@]12c3[nH]c4cc(-c5ccco5)ccc4c3CCN1C(=O)[C@@H](CC(=O)NCc1cccc(C(F)(F)F)c1)C[C@@H]2C(=O)N1CCOCC1	inconclusive: 12.6 µM [inhibitor, partial curve, poor fit]	
Cc1ccc(C)c(NC(=O)CCc2c(C)n(C)c3cc(-c4ccccc4C)nn3c2=O)c1	inconclusive: 11.2 µM [inhibitor, partial curve, poor fit]	
COc1ccc2oc3ccc(OC)cc3c(=O)c2c1	inconclusive: 35.5 µM [inhibitor, single point]	
OC[C@@H]1CN(Cc2ccccc2)C[C@H](n2cnc3c(NCc4ccc(F)cc4)ncnc32)O1	inconclusive: 11.2 µM [inhibitor, partial curve]	
Cc1ccccc1Cn1c(C)c(CNCc2ccccc2)c(C(=O)O)c1C		inactive: -14.3%

SMILES	Potency	activity, negative = inhibition
CC1(C(=O)O)CCCN(C(=O)c2cccnc2Oc2ccccc2)C1 (centres undefined)		inactive: -10.9%
COC(=O)c1ccc(OC(=O)CS(=O)c2ccccc2[N+](=O)[O-])cc1 (centres undefined)		inactive: 3.92%
COc1ccc(-c2csc3ncnc(Oc4cccc5ccc(C)nc45)c23)cc1		inactive: -0.114%
CC1(C)c2[nH]c3ccccc3c2C[C@@H]2C(=O)N(Cc3ccccc3Cl)C(=O)N21	inconclusive: 25.1 µM [inhibitor, single point]	
CCOC(=O)c1cc(-c2ccc(/C=N\n3cnnc3)o2)ccc1Cl		inactive: 6.72%
O=C(NC1CCCC1)C(c1ccco1)N(Cc1ccccc1)C(=O)c1csnn1 (centres undefined)	inconclusive: 35.5 µM [inhibitor, single point]	
CCc1ccccc1NC(=O)C1CCN(c2nn3c(=O)cc(C)nc3s2)CC1	inconclusive: 35.5 µM [inhibitor, single point]	
C/C(=N\Nc1nc2c(s1)CCCC2)c1ccccc1	inconclusive: 35.5 µM [inhibitor, single point]	
Cc1cccc(Cc2cnc(NC(=O)c3ccc4c(c3)CC(c3ccccc3)OC4=O)s2)c1 (centres undefined)		inactive: -16.8%
Cc1ccccc1-n1nnnc1SCC(=O)Nc1ccc(S(=O)(=O)N2CCCC2)cc1	inconclusive: 10 µM [inhibitor, partial curve, poor fit]	
CC1(OC(=O)C2CCCC2)C(=O)C=C2C=C(c3ccsc3)N(C3CC3)C=C2C1=O (centres undefined)		inactive: 16.1%
CCCN1CCN(c2ncnc3sc(C(=O)Nc4ccc(N(CC)CC)cc4C)c(C)c23)CC1	inconclusive: 22.4 µM [inhibitor, single point]	
CCOC(=O)C(Cc1c(F)cccc1Cl)c1ccnc2nc(N)nn12 (centres undefined)	inconclusive: 0.447 µM [inhibitor, partial curve, poor fit]	
COc1ccc(C(=O)Nc2nc3ccc(OC)cc3s2)cc1		inactive: -3.73%
COc1ccc(NC(=O)CCC(=O)Nc2nnc(CC(C)C)s2)cc1Cl		inactive: 6.01%
COc1cccc(CNS(=O)(=O)c2cc(Br)cc3c2N(C(C)=O)C(C)C3)c1 (centres undefined)	inactive	
O=C(CSCc1cnn(-c2ccccc2)c1-n1cccc1)NCc1ccccc1F	inconclusive: 12.6 µM [inhibitor, partial curve, poor fit]	
COc1cccc(-c2csc(N3CCN(C(=S)Nc4ccccc4C)CC3)n2)c1	inconclusive: 11.2 µM [inhibitor, partial curve]	
CCCCC1=CC2=CC(=O)C(C)(OC(=O)CC)C(=O)C2=CN1CCc1ccccn1 (centres undefined)		inactive: -6.58%
CCCOC(=O)C(C)n1nnc2sc(-c3ccccc3)cc2c1=O (centres undefined)	inconclusive: 3.98 µM [inhibitor, partial curve]	
COc1cccc(C(=O)Nc2sc3c(c2C#N)CCN(C(C)=O)C3)c1	inconclusive: 35.5 µM [inhibitor, single point]	
O=C(CN1C(=O)CSc2ccc(S(=O)(=O)N3CCCCC3)cc21)NCc1ccc(F)cc1Cl	inconclusive: 11.2 µM [inhibitor, single point]	
CCOc1ccccc1NC(=O)c1sc2nc3c(cc2c1N)CN(Cc1ccccc1)CC3		inactive: 19%
